Experimental data as given in a collection of fitness landscapes (doi:10.1126/science.1257360).
The other results are listed elsewhere or left out.

B1: PhoQ; a variant is named by its letters at X, in order, P23837 (parent)
chain: MKKLLRLFFPLSLRVRFLLATAAVVLVLSLAYGMVALIGYSVSFDKTTFRLLRGESNLFYTLAKWENNKLHVELPENIDKQSPTMTLIYDENGQLLWAQRDVPWLMKMIQPDWLKSNGFHEIEADVNDTSLLLSGDHSIQQQLQEVREDDDDAEMTHSVAVNVYPATSRMPKLTIVVVDTIPVELKSSYMVWSWFIYVLSANLLLVIPLLWVAAWWSLRPIEALAKEVRELEEHNRELLNPATTRELTSLVRNLNRLLKSERERYDKYRTTLTDLTHSLKTPLXXLQXXLRSLRSEKMSVSDAEPVMLEQISRISQQIGYYLHRASMRGGTLLSRELHPVAPLLDNLTSALNKVYQRKGVNISLDISPEISFVGEQNDFVEVMGNVLDNACKYCLEFVEISARQTDEHLYIVVEDDGPGIPLSKREVIFDRGQRVDTLRPGQGVGLAVAREITEQYEGKIVAGESMLGGARMEVIFGRQHSAPKDE

Variants of: B1
Experiment: enrichment ratio after two sorts for PhoP signalling (ratio (wild type AVST 3.29)); higher = more functional
Details: with PhoP (E. coli)

Row | Variant | enrichment ratio
1 | QCWV | 4.67
2 | NGCC | ≤ 0.25
3 | QPNV | ≤ 0.25
4 | LPRA | ≤ 0.25
5 | HLLG | ≤ 0.25
6 | PTNG | ≤ 0.25
7 | QSQL | ≤ 0.25
8 | FDFK | ≤ 0.25
9 | DHIY | ≤ 0.25
10 | NMST | ≤ 0.25
11 | SAPS | ≤ 0.25
12 | WVMM | ≤ 0.25
13 | VDCC | ≤ 0.25
14 | LYCM | ≤ 0.25
15 | IMYG | ≤ 0.25
16 | TWEA | ≤ 0.25
17 | LRTT | ≤ 0.25
18 | MGWP | ≤ 0.25
19 | NLTK | ≤ 0.25
20 | YQPI | ≤ 0.25
21 | PRHA | ≤ 0.25
22 | HRQW | ≤ 0.25
23 | KWDT | ≤ 0.25
24 | IHLY | ≤ 0.25

Row | Variant | enrichment ratio
25 | HDNE | ≤ 0.25
26 | KGNH | ≤ 0.25
27 | WDAP | ≤ 0.25
28 | PAWV | ≤ 0.25
29 | KMFV | ≤ 0.25
30 | HMVA | ≤ 0.25
31 | LIYL | ≤ 0.25
32 | GDIR | ≤ 0.25
33 | FLKE | ≤ 0.25
34 | MLFN | ≤ 0.25
35 | WLRS | ≤ 0.25
36 | VQDG | ≤ 0.25
37 | MRMQ | ≤ 0.25
38 | SSHM | 1.96
39 | LLSM | ≤ 0.25
40 | RPFF | ≤ 0.25
41 | SQWE | ≤ 0.25
42 | SGGK | ≤ 0.25
43 | TKMT | 6.64
44 | MAAR | ≤ 0.25
45 | YKFS | ≤ 0.25
46 | KGCD | ≤ 0.25
47 | NTSG | ≤ 0.25
48 | QKAF | ≤ 0.25

Row | Variant | enrichment ratio
49 | NMPK | ≤ 0.25
50 | CITF | ≤ 0.25
51 | EKVI | ≤ 0.25
52 | SNYN | 0.299
53 | PHER | ≤ 0.25
54 | ICPE | ≤ 0.25
55 | SEAA | 14.3
56 | DPFY | ≤ 0.25
57 | KLVP | ≤ 0.25
58 | SCFL | ≤ 0.25
59 | FENA | ≤ 0.25
60 | FQFL | ≤ 0.25
61 | PTKD | ≤ 0.25
62 | WVQL | ≤ 0.25
63 | GNMY | ≤ 0.25
64 | RRNN | ≤ 0.25
65 | IPTK | ≤ 0.25
66 | PPDH | ≤ 0.25
67 | VPTM | ≤ 0.25
68 | SCLN | 11.7
69 | AFKP | ≤ 0.25
70 | SCPR | ≤ 0.25
71 | KPIN | ≤ 0.25
72 | VAGH | ≤ 0.25

Row | Variant | enrichment ratio
73 | WSKA | ≤ 0.25
74 | GPHD | ≤ 0.25
75 | NKFA | ≤ 0.25
76 | IKQP | ≤ 0.25
77 | LKRY | ≤ 0.25
78 | QEPR | ≤ 0.25
79 | HWAQ | ≤ 0.25
80 | TKCH | 5.23
81 | PSVL | ≤ 0.25
82 | DEFW | ≤ 0.25
83 | WKGA | ≤ 0.25
84 | GGEN | ≤ 0.25
85 | FNPY | ≤ 0.25
86 | IKFN | ≤ 0.25
87 | VQFE | ≤ 0.25
88 | YTTM | 8.49
89 | TCSN | 20
90 | EFAF | ≤ 0.25
91 | WIMH | ≤ 0.25
92 | NVTG | ≤ 0.25
93 | EILV | ≤ 0.25
94 | VGIW | ≤ 0.25
95 | QSEV | ≤ 0.25
96 | SWSR | ≤ 0.25

Row | Variant | enrichment ratio
97 | DKCF | ≤ 0.25
98 | ARLG | ≤ 0.25
99 | GRPI | ≤ 0.25
100 | NDDY | ≤ 0.25
101 | VWYM | ≤ 0.25
102 | TRLF | 3.9
103 | IHTE | ≤ 0.25
104 | PPKW | ≤ 0.25
105 | VVVA | ≤ 0.25
106 | NQLF | ≤ 0.25
107 | RRML | ≤ 0.25
108 | ICLE | 1.52
109 | FPSV | ≤ 0.25
110 | VKEV | ≤ 0.25
111 | QRPG | ≤ 0.25
112 | RKMV | ≤ 0.25
113 | SHYF | ≤ 0.25
114 | RNIS | ≤ 0.25
115 | FQYL | ≤ 0.25
116 | PVDP | ≤ 0.25
117 | SSGW | ≤ 0.25
118 | RGYF | ≤ 0.25
119 | RGQW | ≤ 0.25
120 | EFNN | ≤ 0.25

Row | Variant | enrichment ratio
121 | KVRK | ≤ 0.25
122 | VPWH | ≤ 0.25
123 | HSRT | ≤ 0.25
124 | ICMA | ≤ 0.25
125 | DMKL | ≤ 0.25
126 | HCIL | ≤ 0.25
127 | KCDQ | ≤ 0.25
128 | DQSH | ≤ 0.25
129 | EVKD | ≤ 0.25
130 | NASP | ≤ 0.25
131 | RTHE | ≤ 0.25
132 | HSPI | ≤ 0.25
133 | FINP | ≤ 0.25
134 | GARH | ≤ 0.25
135 | LGLG | 1.32
136 | HEVA | ≤ 0.25
137 | LDHQ | ≤ 0.25
138 | INYQ | ≤ 0.25
139 | ACDK | ≤ 0.25
140 | DTHI | ≤ 0.25
141 | RDWA | ≤ 0.25
142 | FVWD | ≤ 0.25
143 | VKPR | ≤ 0.25
144 | DLGW | ≤ 0.25

Row | Variant | enrichment ratio
145 | SKSL | 8.21
146 | NYMR | ≤ 0.25
147 | FDVA | ≤ 0.25
148 | RSWL | ≤ 0.25
149 | HARH | ≤ 0.25
150 | ETID | ≤ 0.25
151 | VPHK | ≤ 0.25
152 | PRQI | ≤ 0.25
153 | TDDL | ≤ 0.25
154 | DEYK | ≤ 0.25
155 | SPRR | ≤ 0.25
156 | LFVD | ≤ 0.25
157 | RPNK | ≤ 0.25
158 | QKYQ | ≤ 0.25
159 | PDTE | ≤ 0.25
160 | LLRR | ≤ 0.25
161 | LYTY | ≤ 0.25
162 | WSVY | ≤ 0.25
163 | QNDA | ≤ 0.25
164 | KRVK | ≤ 0.25
165 | PATK | ≤ 0.25
166 | ELFF | ≤ 0.25
167 | DSAM | ≤ 0.25
168 | FVIA | ≤ 0.25

Row | Variant | enrichment ratio
169 | GPQD | ≤ 0.25
170 | SRIQ | ≤ 0.25
171 | IFSF | ≤ 0.25
172 | SANM | 9.22
173 | YHAI | ≤ 0.25
174 | LASF | ≤ 0.25
175 | IPIR | ≤ 0.25
176 | TDWM | ≤ 0.25
177 | YACG | ≤ 0.25
178 | FTLY | 7.11
179 | MIPF | ≤ 0.25
180 | LCVQ | ≤ 0.25
181 | FCYL | ≤ 0.25
182 | SKHS | ≤ 0.25
183 | LQMG | ≤ 0.25
184 | TACE | ≤ 0.25
185 | HMSH | ≤ 0.25
186 | QKRQ | ≤ 0.25
187 | MPIH | ≤ 0.25
188 | IDMS | ≤ 0.25
189 | PPIR | ≤ 0.25
190 | YQTC | 0.362
191 | LNIA | ≤ 0.25
192 | LDCK | ≤ 0.25

Row | Variant | enrichment ratio
193 | SFMG | 6.91
194 | MHVW | ≤ 0.25
195 | DQFG | ≤ 0.25
196 | FGFC | ≤ 0.25
197 | QWCY | ≤ 0.25
198 | TGVL | 1.12
199 | GSQK | ≤ 0.25
200 | LYHD | ≤ 0.25
201 | PYYC | ≤ 0.25
202 | WCFT | ≤ 0.25
203 | DCTE | ≤ 0.25
204 | LYII | ≤ 0.25
205 | WKDS | ≤ 0.25
206 | LEFW | ≤ 0.25
207 | RIHS | ≤ 0.25
208 | GNLN | 3.44
209 | KETL | ≤ 0.25
210 | NESM | ≤ 0.25
211 | VCWI | ≤ 0.25
212 | PTPC | ≤ 0.25
213 | PNHV | ≤ 0.25
214 | FLDA | ≤ 0.25
215 | LCPR | ≤ 0.25
216 | MRCS | ≤ 0.25

Row | Variant | enrichment ratio
217 | SSIH | 3.59
218 | MCFS | ≤ 0.25
219 | TSYY | 5.72
220 | PESG | ≤ 0.25
221 | FMAT | ≤ 0.25
222 | CSRA | ≤ 0.25
223 | THAR | ≤ 0.25
224 | MAGI | 7.63
225 | STNP | ≤ 0.25
226 | VDWD | ≤ 0.25
227 | INNI | ≤ 0.25
228 | DYKM | ≤ 0.25
229 | MGII | 5.02
230 | LLKR | ≤ 0.25
231 | LFIG | ≤ 0.25
232 | PWYE | ≤ 0.25
233 | GGCI | 0.663
234 | MQAF | ≤ 0.25
235 | NNAN | ≤ 0.25
236 | LCMI | ≤ 0.25
237 | SQSK | ≤ 0.25
238 | VEGI | ≤ 0.25
239 | TVSD | 2.78
240 | DDNY | ≤ 0.25

Row | Variant | enrichment ratio
241 | ITLS | 1.53
242 | HYPH | ≤ 0.25
243 | KWLK | ≤ 0.25
244 | QVIW | ≤ 0.25
245 | WSPV | ≤ 0.25
246 | WIIC | ≤ 0.25
247 | LYDH | ≤ 0.25
248 | PSRN | ≤ 0.25
249 | AYFR | ≤ 0.25
250 | HTRS | ≤ 0.25
251 | RHCS | ≤ 0.25
252 | DTWI | ≤ 0.25
253 | LVHG | ≤ 0.25
254 | DNNK | ≤ 0.25
255 | QAWL | 19.9
256 | RIVC | ≤ 0.25
257 | AMCE | 67.3
258 | PHRY | ≤ 0.25
259 | WVLW | ≤ 0.25
260 | DYNP | ≤ 0.25
261 | TIDE | ≤ 0.25
262 | ANPL | ≤ 0.25
263 | DNNV | ≤ 0.25
264 | MYFS | ≤ 0.25

Row | Variant | enrichment ratio
265 | KLCH | ≤ 0.25
266 | LHPR | ≤ 0.25
267 | SEEN | ≤ 0.25
268 | ISSG | ≤ 0.25
269 | RKAV | ≤ 0.25
270 | VWMG | ≤ 0.25
271 | KEIW | ≤ 0.25
272 | GQWA | ≤ 0.25
273 | VQRR | ≤ 0.25
274 | PQSC | ≤ 0.25
275 | PKIH | ≤ 0.25
276 | GQSC | ≤ 0.25
277 | YLAW | ≤ 0.25
278 | IGHM | ≤ 0.25
279 | QTPM | ≤ 0.25
280 | SPKN | ≤ 0.25
281 | PKFA | ≤ 0.25
282 | VSVR | ≤ 0.25
283 | YRDL | ≤ 0.25
284 | DRFP | ≤ 0.25
285 | NETK | ≤ 0.25
286 | HARP | ≤ 0.25
287 | MFRE | ≤ 0.25
288 | ICKE | ≤ 0.25

Row | Variant | enrichment ratio
289 | HRNS | ≤ 0.25
290 | QTCI | ≤ 0.25
291 | GSCF | 11.5
292 | NNHP | ≤ 0.25
293 | KHNH | ≤ 0.25
294 | QMSH | 7.1
295 | AMLP | ≤ 0.25
296 | IADH | ≤ 0.25
297 | SFKW | ≤ 0.25
298 | VCKC | ≤ 0.25
299 | FNFN | ≤ 0.25
300 | DHCP | ≤ 0.25
301 | EAVS | ≤ 0.25
302 | NEGN | ≤ 0.25
303 | FQRH | ≤ 0.25
304 | NHDK | ≤ 0.25
305 | NLLA | ≤ 0.25
306 | HKCR | ≤ 0.25
